From paper PMC4336329 (PLoS ONE, 2015) come the findings set out here.

The whole screen tested about 310,000 compounds, of which about 2,200 (0.71%) showed an effect of 50% or more. Effects have a minus sign here. This is one part of the list.

human ether-à-go-go-related gene (hERG) potassium channel, sequence (Q12809 whole entry, looked up): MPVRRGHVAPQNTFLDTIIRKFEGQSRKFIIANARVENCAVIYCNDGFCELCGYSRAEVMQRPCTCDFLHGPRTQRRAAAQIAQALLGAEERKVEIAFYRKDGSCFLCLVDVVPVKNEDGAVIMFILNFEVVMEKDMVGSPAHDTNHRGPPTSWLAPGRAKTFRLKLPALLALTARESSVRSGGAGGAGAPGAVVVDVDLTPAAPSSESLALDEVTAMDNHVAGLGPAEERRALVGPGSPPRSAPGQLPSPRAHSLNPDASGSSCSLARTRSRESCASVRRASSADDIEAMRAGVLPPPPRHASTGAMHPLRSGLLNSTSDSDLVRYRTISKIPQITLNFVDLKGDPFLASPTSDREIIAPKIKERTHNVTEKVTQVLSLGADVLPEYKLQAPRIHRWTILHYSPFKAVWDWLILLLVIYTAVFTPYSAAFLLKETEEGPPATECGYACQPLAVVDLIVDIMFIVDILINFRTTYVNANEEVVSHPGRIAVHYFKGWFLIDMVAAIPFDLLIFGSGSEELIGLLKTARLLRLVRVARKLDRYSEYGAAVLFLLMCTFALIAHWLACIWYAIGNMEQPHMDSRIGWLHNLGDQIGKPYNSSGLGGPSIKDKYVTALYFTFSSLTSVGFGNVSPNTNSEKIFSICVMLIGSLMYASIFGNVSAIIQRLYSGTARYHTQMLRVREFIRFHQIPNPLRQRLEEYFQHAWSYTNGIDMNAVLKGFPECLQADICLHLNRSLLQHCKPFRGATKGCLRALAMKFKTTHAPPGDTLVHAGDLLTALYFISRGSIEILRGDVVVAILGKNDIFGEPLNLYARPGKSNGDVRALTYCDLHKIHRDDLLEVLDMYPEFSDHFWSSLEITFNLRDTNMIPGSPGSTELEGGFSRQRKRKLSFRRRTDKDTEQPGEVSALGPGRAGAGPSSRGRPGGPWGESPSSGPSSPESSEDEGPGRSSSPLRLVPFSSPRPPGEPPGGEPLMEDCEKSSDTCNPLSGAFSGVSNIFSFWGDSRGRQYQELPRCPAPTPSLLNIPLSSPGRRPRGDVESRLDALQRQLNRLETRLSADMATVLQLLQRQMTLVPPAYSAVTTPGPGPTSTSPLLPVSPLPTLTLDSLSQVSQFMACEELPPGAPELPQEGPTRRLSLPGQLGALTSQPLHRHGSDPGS

This test addresses human ether-à-go-go-related gene (hERG) potassium channel (human, UniProt Q12809). The test is described as follows: primary screen, population patch clamp on CHO cells stably expressing hERG.
As for `O=C(N/N=C\c1cccnc1)C1c2ccccc2Oc2ccccc21`, the “hERG current change (%, negative = inhibition) at 1uM” value came out at 13.2%.
With `Cn1c(SCC(=O)NCc2ccc3c(c2)OCO3)nnc1-c1cccs1` the figure was 3.56%; with `Cc1ccc(-c2nnc(N3CCOCC3)c3ccccc23)cc1S(=O)(=O)NCc1cccnc1`, 12.3%; with `O=C(OCC#CCSc1nnc(-c2ccc([N+](=O)[O-])cc2)o1)c1cccs1`, 0.565%.
Regarding `Cc1[nH]c2ccccc2c1C(=O)/C=C\c1ccccc1Cl`, the “hERG current change (%, negative = inhibition) at 1uM” value came to 17.4%.
In the case of `COC(=O)Cc1ccc2oc(-c3cccnc3)nc2c1`, the “hERG current change (%, negative = inhibition) at 1uM” value came to 10.9%.
With `O=C(CN1C(=O)NC2(CCCC2)C1=O)OCc1ccc(Cl)cc1Cl` the figure was -1.09%.
Under `O=C(NC1CCN(Cc2ccc3ccccc3c2)CC1)c1ccccc1` stands -10.2%.
On to `O=C(NS(=O)(=O)c1ccc(Cl)cc1)c1ccccc1`, for which the “hERG current change (%, negative = inhibition) at 1uM” value amounted to 11.9%.
Turning to `Cc1ccc(C(=O)c2coc3ccc(O)cc23)cc1`, the “hERG current change (%, negative = inhibition) at 1uM” value turned out to be 9.21%.
For `CCCSc1oc(-c2ccco2)nc1S(=O)(=O)c1ccc(C)cc1`, the “hERG current change (%, negative = inhibition) at 1uM” value turned out to be 21.3%.
Under `CC(C)NC(=O)NC(=O)COC(=O)c1ccc(NC(=O)CC#N)cc1` stands 5.06%.
On to `CN(Cc1ccccc1)S(=O)(=O)c1ccc(C(=O)Nc2nnc(C3CC3)o2)cc1`, for which the “hERG current change (%, negative = inhibition) at 1uM” value came out at 1.93%.
Consider `O=C(Nc1ccnn1C1CCN(Cc2cccc(F)c2F)CC1)C1CCCC1`, for which the “hERG current change (%, negative = inhibition) at 1uM” value was found to be 8%.
In the case of `CCCCNC(=O)CSc1nc2cc(OC)c(OC)cc2c(=O)n1Cc1ccc(OC)cc1`, the “hERG current change (%, negative = inhibition) at 1uM” value was determined as 4.01%.
With `Cn1cnc([N+](=O)[O-])c1Sc1nc2ccccc2[nH]1` the figure was 2.24%; with `O=C(c1ccc(Br)cc1)N(C1=NCCCCS1)c1ccccc1`, -2.59%.
Take `C/C=C(\C)CN1CCC(n2nccc2NC(=O)CCOc2ccccc2)CC1`: the “hERG current change (%, negative = inhibition) at 1uM” value came to 10.8%.
In the case of `CCOCCCNC(=O)CCc1ccc(S(=O)(=O)Nc2ccc(C)cc2)cc1`, the “hERG current change (%, negative = inhibition) at 1uM” value is 17.5%.
Under `COc1ccc2nc(NC(=O)C3CCN(S(=O)(=O)c4cccc5nsnc45)CC3)sc2c1` stands 10.5%; under `O=C(O)CCN1C(=O)S/C(=C\c2cccnc2)C1=O`, 11.4%; under `COc1ccc(-c2csc(NC(=O)CSc3nc(C)nc4sc(C(=O)O)c(C)c34)n2)cc1`, 6.07%.
Regarding `O=C(c1ccccc1)C(c1ccccc1)c1ccccc1`, the “hERG current change (%, negative = inhibition) at 1uM” value is recorded as 6.7%.
For the molecule `COCCn1c(C)cc(/C=C(\C#N)C(=O)OCC(=O)N(C)c2c(N)n(Cc3ccccc3)c(=O)[nH]c2=O)c1C`, the “hERG current change (%, negative = inhibition) at 1uM” value is given as 13.6%.
For `COc1ccc(Cl)cc1NC(=O)C(=O)NCc1ccncc1`, the “hERG current change (%, negative = inhibition) at 1uM” value came to 6.36%.
With `CN(C(=O)COC(=O)c1cn(C)c2ccccc12)C1CCCCC1`, the “hERG current change (%, negative = inhibition) at 1uM” value came to 15.7%.
Under `Cc1ccc(NC(=O)CC2CS(=O)(=O)CC2CC(=O)Nc2ccc(C)c(C)c2)cc1C` (centres unmarked) stands 3.74%; under `Cc1ccc(S(=O)(=O)NCC(=O)NCc2cc(=O)n(C)c(=O)n2C)cc1`, 42.4%; under `FC(F)(F)c1cccc(N2CCN(CC3CC=CCC3)CC2)c1` (centres unmarked), 14.3%.
Turning to `O=C(NNc1ccccc1)C(=O)NNS(=O)(=O)c1ccc(CCCl)cc1`, the “hERG current change (%, negative = inhibition) at 1uM” value is recorded as 6.46%.
For `Cc1ccc(Nc2ncccc2C(N)=O)cc1`, the “hERG current change (%, negative = inhibition) at 1uM” value came out at 6.06%.
`CCC(C(=O)Nc1ccccc1)c1ccccc1` (centres unmarked): the “hERG current change (%, negative = inhibition) at 1uM” value is 6.6%.
Regarding `O=C(NCc1ccncc1)C(=O)NCC(c1ccco1)N1CCN(c2ccc(F)cc2)CC1` (centres unmarked), the “hERG current change (%, negative = inhibition) at 1uM” value is given as -0.429%.
As to `O=C(NC(=S)N1CCOCC1)c1ccc(F)cc1`, the “hERG current change (%, negative = inhibition) at 1uM” value worked out at 20.8%.
In the case of `Cc1ccc(OCCNc2cc(N3CCN(CCO)CC3)ccc2[N+](=O)[O-])cc1C`, the “hERG current change (%, negative = inhibition) at 1uM” value amounted to 13%.
In the case of `Cc1ccc(C(=O)Cn2c(C(=O)OCCO)cc3ccccc32)cc1`, the “hERG current change (%, negative = inhibition) at 1uM” value is 11.7%.
Turning to `Cc1nnc(NC(=O)CSc2nc3c(c(=O)n(C)c(=O)n3C)n2C(C)C)s1`, the “hERG current change (%, negative = inhibition) at 1uM” value stood at 14.5%.
Take `CC1CCCCN1C(=O)c1cc2nc(-c3ccccc3)cc(-c3ccccc3)n2n1` (centres unmarked): the “hERG current change (%, negative = inhibition) at 1uM” value worked out at 12.4%.
Take `O=C(CCCN1C(=O)c2ccccc2C1=O)Nc1ccccn1`: the “hERG current change (%, negative = inhibition) at 1uM” value turned out to be 15.6%.
Consider `COCc1cc(C)nc(SCC(=O)NC2CCCCC2C)c1C#N` (centres unmarked), for which the “hERG current change (%, negative = inhibition) at 1uM” value was 16%.
As for `NS(=O)(=O)c1ccc(CCNC(=O)COC(=O)C2CCC2)cc1`, the “hERG current change (%, negative = inhibition) at 1uM” value is given as 9.64%.
For the molecule `COc1ccccc1-n1c(SCC(=O)Nc2ccc(NC(C)=O)cc2)nc2c([nH]c3ccccc32)c1=O`, the “hERG current change (%, negative = inhibition) at 1uM” value came out at 14.2%.
In the case of `COc1ccc(S(=O)(=O)N2CCCCC2)cc1NC(=S)Nc1ccccc1`, the “hERG current change (%, negative = inhibition) at 1uM” value is given as 13.9%.
Turning to `CC(=O)c1cccc(NC(=O)C2CCN(S(=O)(=O)c3ccc(C)cc3)CC2)c1`, the “hERG current change (%, negative = inhibition) at 1uM” value is -1.63%.
